These results are taken from PubChem BioAssay AID1508623 (National Center for Advancing Translational Sciences (NCATS), 2021).

The whole screen tested about 48,000 compounds, of which about 450 (0.94%) were called active. About 19% were inconclusive and are not listed. Calls follow the shape of the dose curve; as a rule, active = well fitted inhibition curve with a large enough effect; inconclusive = small, poorly fitted or top-dose-only effect; inactive = no such curve, though single readings can be large or run the other way. The list shows a part of the results.

This assay can be described thus: Primary qHTS for Identification of Small Molecule Inhibitors of Huntingtin Promoter Activity. Also: nearly all actives have a fitted effect of over 50% in size. The following applies: HEK293 HTT promoter firefly luciferase reporter (activity 0% = vehicle and -100% = no light), 24 h; series mostly up to 57.5 µM; activity change, negative = inhibition: at the top concentration. In a few lines:
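Firefly luciferase readout (Dual-Glo, 10 min RT) after 24 h, 37 °C compound exposure (final up to 57.5 uM) of HEK293 reporter cells cultured 24 h beforehand; PTC124 at 50 uM final as control inhibitor; activity scaled vehicle 0%, zero RLU -100%.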
As to `Cc1ccc(SCC(=O)Nc2ccc3oc(-c4cccc(C)c4)nc3c2)cc1`, the “activity change, negative = inhibition” value was inactive: -10.1%.

Regarding `Cc1ccc(Cl)cc1NC(=O)CCS(=O)(=O)c1ccc(Br)s1`, the “activity change, negative = inhibition” value was inactive: -3.7%.

As for `CCN1C(=O)CC(C(=O)Nc2ccc(OC)cc2)SC1=Nc1ccc(C)c(C)c1` (configuration not stated), the “activity change, negative = inhibition” value is inactive: -12.7%.

For the compound `CCOC(=O)c1noc2ncn(CC(=O)O)c(=O)c12`, the “activity change, negative = inhibition” value was inactive: 63.8%.

With `O=C(NCCC1=CCCCC1)c1ccc2c(c1)N(Cc1ccccc1)C(=O)c1ccccc1S2(=O)=O`, the “activity change, negative = inhibition” value is inactive: -6.95%.

For the compound `O=C(Cn1cc(SCc2ccccc2Cl)c2ccccc21)N1CCCCCC1`, the “activity change, negative = inhibition” value is inactive: -17.4%.

With `Cc1ccc(CNC(=O)CN(c2cc(C)cc(C)c2)S(=O)(=O)c2c(C)[nH]c(=O)[nH]c2=O)cc1`, the “activity change, negative = inhibition” value was inactive: -15%.

Regarding `Cc1ccc(N2CCN(C(=O)c3nn(C)c4c3CSc3ccccc3-4)CC2C)cc1` (configuration not stated), the “activity change, negative = inhibition” value is inactive: -17%.

Turning to `CCOc1ccc(-c2ccc(CO)o2)cc1N`, the “activity change, negative = inhibition” value is inactive: 14.9%.

On to `CCc1ccc(C2c3c(n[nH]c3C)C(=O)N2c2ccc(C)cc2)cc1` (configuration not stated), for which the “activity change, negative = inhibition” value is inactive: 34.5%.

For `CCc1cccc(NC(=O)CCS(=O)(=O)c2ccc(C)cc2)c1`, the “activity change, negative = inhibition” value was inactive: -4.98%.

Consider `O=C(NC1CCCC1)c1ccc2c(c1)N(Cc1ccc(F)cc1)C(=O)c1ccccc1S2`, for which the “activity change, negative = inhibition” value was inactive: -11.8%.

Consider `COc1ccc(NC(=O)C(Cc2ccccc2)n2cccc2)c(OC)c1` (configuration not stated), for which the “activity change, negative = inhibition” value was inactive: -24.8%.

Consider `COc1ccc(-c2noc(-c3ccccc3NC(=O)c3cc(OC)c(OC)c(OC)c3)n2)cc1`, for which the “activity change, negative = inhibition” value is inactive: -6.3%.

Consider `O=S(=O)(Nc1nc2n(n1)C(c1ccccc1)C=C(c1ccc(Cl)cc1)N2)c1ccccc1` (configuration not stated), for which the “activity change, negative = inhibition” value was inactive: -7.06%.

For the compound `O=C(NCc1ccc(Cl)cc1)C1CCCN(c2ncnc3onc(-c4ccc(F)cc4)c23)C1` (configuration not stated), the “activity change, negative = inhibition” value is inactive: -11.8%.

In the case of `COc1ccc(Nc2nnc(-c3ccc(C)c(S(=O)(=O)N4CCOCC4)c3)c3ccccc23)cc1`, the “activity change, negative = inhibition” value was inactive: -5.99%.

With `OC(CCN1CCCCC1)(c1ccccc1)c1ccccc1`, the “activity change, negative = inhibition” value was inactive: -7.09%.

Take `CCOc1cc(C2c3c(oc4ccc(F)cc4c3=O)C(=O)N2Cc2ccc(C)cc2)ccc1O` (configuration not stated): the “activity change, negative = inhibition” value was inactive: 6.75%.

In the case of `CCCCNC(=O)CSc1nc2n[nH]c(C)c2c(=N)n1-c1ccccc1CC`, the “activity change, negative = inhibition” value is inactive: -23.3%.

Take `O=C(COc1ccccc1F)Nc1nnc(S(=O)(=O)N2CCCCCC2)s1`: the “activity change, negative = inhibition” value is inactive: -19.4%.

Turning to `Cc1ccccc1Cc1c(C)nc2nc(SCC(=O)NC(C)c3ccccc3)nn2c1C` (configuration not stated), the “activity change, negative = inhibition” value is inactive: -29.3%.

As to `CCC1CN(C(=O)Nc2cccc3c2CCCC3)c2cc(C)ccc2O1` (configuration not stated), the “activity change, negative = inhibition” value is inactive: -25.4%.

Take `CCCCNC(=O)C1CCN(Cc2nc(-c3ccc(OC)c(OC)c3)oc2C)CC1`: the “activity change, negative = inhibition” value is inactive: 7%.

With `COc1ccc(CCNC(=O)CSc2nnc(-c3ccc(C)cc3)c(-c3ccc(C)cc3)n2)cc1OC`, the “activity change, negative = inhibition” value is inactive: 3.67%.

As to `Cc1ccc(-c2noc(-c3ccc(NCC4CCCO4)c([N+](=O)[O-])c3)n2)cc1` (configuration not stated), the “activity change, negative = inhibition” value is inactive: 3.35%.

As for `COc1cccc(C2=NN(S(C)(=O)=O)C(c3cn(-c4ccccc4)nc3-c3cccs3)C2)c1` (configuration not stated), the “activity change, negative = inhibition” value was inactive: 1.61%.
